Assay results: the CheMixHub ionic liquid set
± gives the uncertainty stated by the source. Further values from the same series stand in other lists.

Assay: xn = mol fraction of the nth substance listed
Settings: 101 kPa

CCCCCCCCCCCCOS(=O)(=O)[O-].[Na+] + O
electrical conductivity (298.15 K, x1 = 0.0001881): 0.06154 ± 3e-05 S/m
electrical conductivity (298.15 K, x1 = 0.0001928): 0.0626 ± 0.00085 S/m
electrical conductivity (298.15 K, x1 = 0.0001982): 0.0634 ± 0.00083 S/m
electrical conductivity (298.15 K, x1 = 0.0002038): 0.0641 ± 0.00082 S/m
electrical conductivity (298.15 K, x1 = 0.0002092): 0.0648 ± 0.00083 S/m
electrical conductivity (298.15 K, x1 = 0.0002099): 0.06444 ± 3e-05 S/m
electrical conductivity (298.15 K, x1 = 0.0002147): 0.0654 ± 0.00082 S/m
electrical conductivity (298.15 K, x1 = 0.0002199): 0.06573 ± 3e-05 S/m
electrical conductivity (298.15 K, x1 = 0.00022): 0.066 ± 0.00083 S/m
electrical conductivity (298.15 K, x1 = 0.0002254): 0.0666 ± 0.00086 S/m
electrical conductivity (298.15 K, x1 = 0.0002306): 0.0673 ± 0.0009 S/m
electrical conductivity (298.15 K, x1 = 0.0002313): 0.06734 ± 3e-05 S/m
electrical conductivity (298.15 K, x1 = 0.0002358): 0.068 ± 0.00091 S/m
electrical conductivity (298.15 K, x1 = 0.0002411): 0.0686 ± 0.00092 S/m
electrical conductivity (298.15 K, x1 = 0.0002463): 0.0693 ± 0.002 S/m
electrical conductivity (298.15 K, x1 = 0.0002578): 0.07077 ± 3e-05 S/m
electrical conductivity (298.15 K, x1 = 0.000273): 0.07281 ± 4e-05 S/m
electrical conductivity (303.15 K, x1 = 6.546e-05): 0.02789 ± 1e-05 S/m
electrical conductivity (303.15 K, x1 = 7.004e-05): 0.02959 ± 1e-05 S/m
electrical conductivity (303.15 K, x1 = 7.539e-05): 0.03194 ± 1e-05 S/m
electrical conductivity (303.15 K, x1 = 8.11e-05): 0.03461 ± 2e-05 S/m
electrical conductivity (303.15 K, x1 = 8.834e-05): 0.0377 ± 2e-05 S/m
electrical conductivity (303.15 K, x1 = 9.789e-05): 0.04133 ± 2e-05 S/m
electrical conductivity (303.15 K, x1 = 0.0001032): 0.04357 ± 2e-05 S/m
electrical conductivity (303.15 K, x1 = 0.0001093): 0.04602 ± 2e-05 S/m
electrical conductivity (303.15 K, x1 = 0.0001154): 0.04858 ± 2e-05 S/m
electrical conductivity (303.15 K, x1 = 0.0001227): 0.05146 ± 2e-05 S/m
electrical conductivity (303.15 K, x1 = 0.0001315): 0.05499 ± 2e-05 S/m
electrical conductivity (303.15 K, x1 = 0.000141): 0.05904 ± 3e-05 S/m
electrical conductivity (303.15 K, x1 = 0.0001521): 0.06267 ± 3e-05 S/m
electrical conductivity (303.15 K, x1 = 0.0001655): 0.06503 ± 3e-05 S/m
electrical conductivity (303.15 K, x1 = 0.0001808): 0.0677 ± 3e-05 S/m
electrical conductivity (303.15 K, x1 = 0.0001987): 0.0707 ± 3e-05 S/m
electrical conductivity (303.15 K, x1 = 0.0002221): 0.07424 ± 3e-05 S/m
electrical conductivity (303.15 K, x1 = 0.0002324): 0.07585 ± 4e-05 S/m
electrical conductivity (303.15 K, x1 = 0.0002439): 0.07788 ± 4e-05 S/m
electrical conductivity (303.15 K, x1 = 0.0002576): 0.07981 ± 4e-05 S/m
electrical conductivity (303.15 K, x1 = 0.0002714): 0.08185 ± 4e-05 S/m
electrical conductivity (303.15 K, x1 = 0.0002879): 0.08443 ± 4e-05 S/m
electrical conductivity (308.15 K, x1 = 7.35e-06): 0.00521 ± 0.0006 S/m
electrical conductivity (308.15 K, x1 = 1.463e-05): 0.0087 ± 0.00062 S/m
electrical conductivity (308.15 K, x1 = 2.184e-05): 0.012 ± 0.00063 S/m
electrical conductivity (308.15 K, x1 = 2.898e-05): 0.0152 ± 0.00066 S/m
electrical conductivity (308.15 K, x1 = 3.604e-05): 0.0186 ± 0.00069 S/m
electrical conductivity (308.15 K, x1 = 4.303e-05): 0.0219 ± 0.00072 S/m
electrical conductivity (308.15 K, x1 = 4.997e-05): 0.0251 ± 0.00076 S/m
electrical conductivity (308.15 K, x1 = 5.683e-05): 0.0283 ± 0.0008 S/m
electrical conductivity (308.15 K, x1 = 6.047e-05): 0.02841 ± 1e-05 S/m
electrical conductivity (308.15 K, x1 = 6.362e-05): 0.0315 ± 0.00084 S/m
electrical conductivity (308.15 K, x1 = 6.925e-05): 0.03246 ± 1e-05 S/m
electrical conductivity (308.15 K, x1 = 7.036e-05): 0.0345 ± 0.00086 S/m
electrical conductivity (308.15 K, x1 = 7.703e-05): 0.0375 ± 0.00092 S/m
electrical conductivity (308.15 K, x1 = 8.069e-05): 0.0378 ± 2e-05 S/m
electrical conductivity (308.15 K, x1 = 8.364e-05): 0.0405 ± 0.00094 S/m
electrical conductivity (308.15 K, x1 = 8.831e-05): 0.04121 ± 2e-05 S/m
electrical conductivity (308.15 K, x1 = 9.018e-05): 0.0432 ± 0.00099 S/m
electrical conductivity (308.15 K, x1 = 9.658e-05): 0.0461 ± 0.0011 S/m
electrical conductivity (308.15 K, x1 = 9.746e-05): 0.04516 ± 2e-05 S/m
electrical conductivity (308.15 K, x1 = 0.0001024): 0.04761 ± 2e-05 S/m
electrical conductivity (308.15 K, x1 = 0.0001031): 0.0491 ± 0.0011 S/m
electrical conductivity (308.15 K, x1 = 0.0001085): 0.05017 ± 2e-05 S/m
electrical conductivity (308.15 K, x1 = 0.0001094): 0.0517 ± 0.0011 S/m
electrical conductivity (308.15 K, x1 = 0.0001146): 0.05305 ± 2e-05 S/m
electrical conductivity (308.15 K, x1 = 0.0001157): 0.0544 ± 0.0011 S/m
electrical conductivity (308.15 K, x1 = 0.000122): 0.0568 ± 0.0013 S/m
electrical conductivity (308.15 K, x1 = 0.0001281): 0.0602 ± 0.0013 S/m
electrical conductivity (308.15 K, x1 = 0.0001306): 0.0602 ± 2e-05 S/m
electrical conductivity (308.15 K, x1 = 0.0001342): 0.0625 ± 0.0012 S/m
electrical conductivity (308.15 K, x1 = 0.0001398): 0.06446 ± 2e-05 S/m
electrical conductivity (308.15 K, x1 = 0.0001404): 0.0647 ± 0.0012 S/m
electrical conductivity (308.15 K, x1 = 0.0001465): 0.0667 ± 0.0011 S/m
electrical conductivity (308.15 K, x1 = 0.0001512): 0.06884 ± 3e-05 S/m
electrical conductivity (308.15 K, x1 = 0.0001524): 0.0685 ± 0.0011 S/m
electrical conductivity (308.15 K, x1 = 0.0001584): 0.0701 ± 0.0011 S/m
electrical conductivity (308.15 K, x1 = 0.0001641): 0.0716 ± 0.0011 S/m
